Laboratory results taken from PubChem BioAssay AID686978 (National Center for Advancing Translational Sciences (NCATS), 2013).
The campaign covered roughly 420,000 compounds. About 64,000 (15%) were called active. Inconclusive results, whose numbers are uncertain, are shown with a selection of clear calls. Calls come from the whole dose curve; as a rule, active = well fitted inhibition curve with a large enough effect; inconclusive = small, poorly fitted or top-dose-only effect; inactive = flat fitted curve, though single readings scatter. Potencies of inconclusive entries are left out as doubtful fits.

assay: qHTS for Inhibitors of human tyrosyl-DNA phosphodiesterase 1 (TDP1): qHTS in cells in absence of CPT; details: DT40 Tdp1-/- hTDP1 cells, no CPT, ATP luminescence, 48 h; series mostly up to 46.2 µM; note: nearly all actives have a fitted effect of over 55% in size
Summary of the method: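 Luminescent ATP content (CellTiter-Glo) served as the growth readout. Knockout chicken DT40 cells expressing human TDP1 were exposed to compounds without camptothecin for a minimum 48 hr at 37 °C.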
Potency is the fitted concentration of half-maximal effect; tags give direction and shape of the fitted curve.

Row | Structure (SMILES) | Potency
1 | Oc1ccc(C[C@@H]2CNCCN2CCC23CC4CC(CC(C4)C2)C3)cc1 | active: 13 µM
2 | Cc1ccc(NS(=O)(=O)c2ccc3c(c2)CC(=O)N3)cc1C | inconclusive [inhibitor, single point]
3 | CC(=O)N1CCN(C(=O)c2ccc(C)c(S(=O)(=O)N3CCCCC3)c2)CC1 | inactive
4 | COC(=O)c1ccc(OCC2c3cc(OC)c(OC)cc3CCN2C(=O)c2ccc(OC)cc2)cc1 (stereo unspecified) | inconclusive [inhibitor, single point]
5 | CC(C)(C)C1CCc2nc(NC(=O)c3cccc(Cl)c3)sc2C1 (stereo unspecified) | active: 23.1 µM
6 | Brc1ccc([C@H]2C=C[C@H]3CCCN4CC[C@H]2[C@@H]3[C@]42CO2)cc1 | active: 11.6 µM
7 | Nc1ncnc2nc(SCCOc3ccc(Cl)cc3)[nH]c12 | inactive
8 | CC1CCCCC1NC(=O)CN1C(=O)NC(Cc2ccccc2)(Cc2ccccc2)C1=O (stereo unspecified) | inconclusive [inhibitor, single point]
9 | O=C1C2CCC(C(O)C2)N1Cc1ccccc1 (stereo unspecified) | inactive
10 | CC(=O)C1=CCC(c2ccc(C)o2)N(S(=O)(=O)c2ccc(C)cc2)C1 (stereo unspecified) | active: 18.4 µM
11 | COc1ccc(C(=O)Nc2ccc(NC(=O)c3cccs3)cn2)cc1 | inconclusive [inhibitor, single point]
12 | Cc1ccc(NC(=S)NCc2ccc(Cl)cc2)c(OC(F)F)c1 | inconclusive [inhibitor, single point]
13 | CC(=O)N1CCCC1c1nc2ccccc2n1Cc1c(F)cccc1Cl (stereo unspecified) | inconclusive [inhibitor, partial curve]
14 | Cc1cccc(-n2ncc3c(N4CCOCC4)ncnc32)c1 | inconclusive [inhibitor, single point]
15 | CCCCCCN1CCN(C2CN(Cc3ccc(F)cc3)S(=O)(=O)C2)CC1 (stereo unspecified) | inconclusive [inhibitor, single point]
16 | O=C(COCc1cc(-c2ccc3c(c2)OCO3)on1)Nc1cccnc1 | inconclusive [inhibitor, single point]
17 | COc1ccc(Cl)cc1-c1cc(C(=O)Nc2cc(OC)c(OC)c(OC)c2)[nH]n1 | inconclusive [inhibitor, single point]
18 | COc1cccc(CN(Cc2cccnc2)S(=O)(=O)c2ccc(-n3cnnn3)c(C)c2)c1OC | inconclusive [inhibitor, single point]
19 | COc1cccc(-c2ccc3c(c2)O[C@H](CN(C)C(=O)c2ccccc2F)[C@H](C)CN([C@H](C)CO)S3(=O)=O)c1 | active: 20.6 µM
20 | CCOc1ccc(-c2cccc(NC(=O)COc3ccccc3)c2)nn1 | inconclusive [inhibitor, single point]
21 | COc1ccc(/C=C/C(=O)N2CCN(c3ccccn3)CC2)c(OC)c1OC | inconclusive [inhibitor, single point]
22 | COc1ccc(CN2CCn3ncc(C(=O)Nc4ccc(Cl)cc4Cl)c3C2=O)cc1 | inconclusive [inhibitor, single point]
23 | CN(C)C(=O)C(=O)c1cccn1-c1cccc(Cl)c1C#N | inactive
24 | Cc1ccc(CN(C)C(=O)CCc2c[nH]c3ccccc23)o1 | inconclusive [inhibitor, single point]

Row | Structure (SMILES) | Potency
25 | COc1ccc(/C=C/C(=O)OCC(=O)c2ccc3c(c2)NC(=O)CO3)c(OC)c1 | inactive
26 | COc1ccc(OC2CCN(S(=O)(=O)c3cccc(F)c3)CC2)cc1 | inconclusive [inhibitor, partial curve, poor fit]
27 | CCc1ccc(OCC(=O)Nc2ccc(S(=O)(=O)Nc3onc(C)c3C)cc2)cc1 | inactive
28 | COc1ccc(C2(CN(C(C)=O)C(C)=O)CCCC2)cc1OC | inconclusive [inhibitor, single point]
29 | COc1cc(OC)cc(C(=O)NC(=S)NCc2ccco2)c1 | inconclusive [inhibitor, single point]
30 | CC(C)=CCn1c2ccc(NC(=O)Nc3ccc(N(C)C)cc3)cc2c(=O)n1C | active: 18.4 µM
31 | CCOC(=O)C1CCN(C(=O)CSc2c3c(nc4ccccc24)CCC3)CC1 | inconclusive [inhibitor, single point]
32 | Nc1cc(C(=O)O)c(Oc2ccc(Cl)cc2Cl)cc1C(=O)O | inactive
33 | COCC(C)n1c(COc2ccccc2F)nnc1SCC(=O)c1c(N)n(C)c(=O)n(C)c1=O (stereo unspecified) | inconclusive [inhibitor, single point]
34 | COc1ccc(C)cc1NC(=O)C(NS(=O)(=O)c1cccs1)c1ccccc1 (stereo unspecified) | inconclusive [inhibitor, single point]
35 | COc1ccc(N2CC(C(=O)Nc3nnc(SCC(=O)N4CCCC4)s3)CC2=O)cc1 (stereo unspecified) | inactive
36 | O=C(CSc1nc2ccc([N+](=O)[O-])cc2[nH]1)c1ccc(Cl)cc1 | inconclusive [inhibitor, partial curve]
37 | CCCCNC(=O)Oc1ccc(C(=O)N2c3ccccc3NC(=O)C2C)cc1 (stereo unspecified) | inconclusive [inhibitor, full curve, poor fit]
38 | Cc1ccc(N(Cc2ccccc2)C(=O)c2ccc(F)cc2)cc1 | inconclusive [inhibitor, partial curve]
39 | COc1ccc(C(=O)CSc2nc3cc(C(=O)NC4CCCC4)ccc3c(=O)n2CC2CCCO2)cc1 (stereo unspecified) | inconclusive [inhibitor, partial curve]
40 | Cc1ccccc1NC(=O)Nc1csc2c1CCCC2 | inconclusive [inhibitor, single point]
41 | CC(=O)Nc1ccc(-c2csc(NCc3ccco3)n2)cc1 | inactive
42 | CC1=CC(=O)C2C(C)(C)CCC[C@@]2(C)[C@@]1(O)CCc1ccoc1 (stereo partly specified) | inconclusive [inhibitor, single point]
43 | CCOc1ccc(CN2C(=O)c3ccccc3Sc3ccc(C(=O)NCc4ccc5c(c4)OCO5)cc32)cc1 | inactive
44 | CC(C)Cn1c(-c2ccncc2)n[nH]c1=S | inactive
45 | COc1ccc(NC(=S)Nc2cc(C(F)(F)F)ccc2F)cc1 | inconclusive [inhibitor, single point]
46 | O=c1c2ccccc2cnn1Cc1ccc(Br)cc1F | inconclusive [inhibitor, single point]
47 | COc1ccc(C2C(C(=O)Nc3ccccc3)=C(C)Nc3nc(-c4ccccc4)nn32)c(OC)c1 (stereo unspecified) | inconclusive [inhibitor, single point]
48 | CC(C)C(=O)Nc1cccc(C(=O)Nc2cc([N+](=O)[O-])ccc2Cl)c1 | inconclusive [inhibitor, single point]

Row | Structure (SMILES) | Potency
49 | Cc1cccc(NC(=O)Cn2c(=O)n(CCc3ccccc3)c(=O)c3ccccc32)c1 | inconclusive [inhibitor, full curve, poor fit]
50 | CCOc1ccc2oc(C(=O)N3CCCN(C)CC3)c(C)c2c1 | inconclusive [inhibitor, single point]
51 | O=c1cc(CCl)nc2scc(-c3ccccc3)n12 | active: 16.4 µM
52 | C[C@H](NC(=O)c1nc[nH]c1C(=O)N1CCN(C(=O)OC(C)(C)C)CC1)C(=O)OCc1ccccc1 | inconclusive [inhibitor, single point]
53 | COc1cc2c(cc1OC)CN(C(=O)c1ccc(-c3ccccc3)cc1)CC2 | inconclusive [inhibitor, single point]
54 | COc1ccc(-c2cc(-c3nnc(COC(=O)c4ccc(O)cc4)o3)c3ccccc3n2)cc1OC | active: 10.3 µM
55 | CCCC(=O)Nc1nc(-c2ccc(Cl)s2)cs1 | active: 5.8 µM
56 | CC(C)NC(=O)C(=O)NCCC1CCCCN1S(=O)(=O)c1cccs1 (stereo unspecified) | inactive
57 | COc1cccc(CN(C)C(=O)CNC(=O)c2sc3ccccc3c2Cl)c1OC | inconclusive [inhibitor, single point]
58 | C=Cc1ccc(Cn2c(C)c(C(=O)NCc3ccc4c(c3)OCCO4)sc2=O)cc1 | active: 10.3 µM
59 | O=C(NC(=S)Nc1ccc(CN2CCCCC2)cc1)c1cccc(OCc2ccccc2)c1 | active: 11.6 µM
60 | COC(=O)CS(=O)(=O)c1cccc2cccnc12 | inactive
61 | N#CC1=C(N)S[C@H](C(=O)C23CC4CC(CC(C4)C2)C3)[C@H]1c1ccncc1 | inconclusive [inhibitor, partial curve, poor fit]
62 | CCCc1cnc2c(c1SCc1cccc(C)c1)c(=O)n(C)c(=O)n2C | inconclusive [inhibitor, single point]
63 | Cc1cccc(C(=O)O/N=C(\N)Cc2ccc([N+](=O)[O-])cc2)c1 | inactive
64 | CC(=O)Nc1ccc(-c2csc(NC(=O)c3ccc(C)o3)n2)cc1 | active: 9.2 µM
65 | COc1ccc(NC(=O)COc2ccc(S(=O)(=O)N3CCOCC3)cc2C)cc1OC | inconclusive [inhibitor, partial curve]
66 | CC(=O)N1CC(C)Oc2ccc(S(=O)(=O)NC(CC(=O)O)c3ccccc3)cc21 (stereo unspecified) | inactive
67 | COc1ccccc1C(=O)C1CCCN(C(=O)c2snnc2C)C1 (stereo unspecified) | inactive
68 | CCc1cccc(NC(=O)CCCN2C(=O)C(c3ccccc3)Oc3cccnc32)c1 (stereo unspecified) | inactive
69 | CCC(C)c1ccccc1NC(=O)CN(CC)CC(=O)Nc1ccc2c(c1)OCCO2 (stereo unspecified) | inactive
70 | COc1ccc(CN2CCc3cc(OC)c(OC)cc3C2)cc1O | inconclusive [inhibitor, single point]
71 | Cc1ccc2[nH]c3c(N4CCOCC4)ncnc3c2c1 | inconclusive [inhibitor, single point]
